Patent US20220056104A1 (Janssen / Centocor, published 2022)

T1: DcR3 (UniProt O95407 30-300, limits assumed)
T1 construct: the construct is not described; also called decoy receptor DcR3; TNFRSF6B
T1 sequence (looked up): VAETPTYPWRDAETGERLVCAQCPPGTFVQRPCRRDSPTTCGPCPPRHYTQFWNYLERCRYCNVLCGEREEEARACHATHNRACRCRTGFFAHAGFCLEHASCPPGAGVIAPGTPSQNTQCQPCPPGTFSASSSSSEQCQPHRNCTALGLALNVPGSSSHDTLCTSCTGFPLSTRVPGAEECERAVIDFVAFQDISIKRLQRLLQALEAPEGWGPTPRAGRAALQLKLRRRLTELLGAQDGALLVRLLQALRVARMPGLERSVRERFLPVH

T2: Recombinant DR3-Fc (R&D Systems, cat. #943-D3) (UniProt Q93038 25-199, limits assumed)
T2 construct: dimeric MW~92 kDa; also called DR3 receptor; Fc-DR3; not shown: Fc part of the bought fusion
T2 sequence (looked up): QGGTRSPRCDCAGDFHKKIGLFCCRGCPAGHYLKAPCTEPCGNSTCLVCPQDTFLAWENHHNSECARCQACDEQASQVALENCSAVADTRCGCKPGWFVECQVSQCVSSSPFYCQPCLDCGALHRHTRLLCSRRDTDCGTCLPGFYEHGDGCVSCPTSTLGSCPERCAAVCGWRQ

B1: TL1W14 (Fc-scTL1A with CD4 HC sp prim_transcript) (Fc fusion)
chain: [left out - human IgG1 Fc and a few adjoining residues]GGGGSVYAPLRADGDKPRAHLTVVRQTPTQHFKNQFPALHWEHELGLAFTKNRMNYTNKFLLIPESGDYFIYSQVTFRGMTSECSEIRQAGRPNKPDSITVVITKVTDSYPEPTQLLMGTKSVCEVGSNWFQPIYLGAMFSLQEGDKLMVNVSDISLVDYTKEDKTFFGAFLLGGGSGGGSGGGSVYAPLRADGDKPRAHLTVVRQTPTQHFKNQFPALHWEHELGLAFTKNRMNYTNKFLLIPESGDYFIYSQVTFRGMTSECSEIRQAGRPNKPDSITVVITKVTDSYPEPTQLLMGTKSVCEVGSNWFQPIYLGAMFSLQEGDKLMVNVSDISLVDYTKEDKTFFGAFLLGGGSGGGSGGGSVYAPLRADGDKPRAHLTVVRQTPTQHFKNQFPALHWEHELGLAFTKNRMNYTNKFLLIPESGDYFIYSQVTFRGMTSECSEIRQAGRPNKPDSITVVITKVTDSYPEPTQLLMGTKSVCEVGSNWFQPIYLGAMFSLQEGDKLMVNVSDISLVDYTKEDKTFFGAFLL
notes: Human IgG1 Fc with single-chain TL1A trimer at its C-terminus; dimer with two TL1A trimers; also called Fc-scTL1A (TL1W14); Fc-scTL1A W14
B2: TL1W328 (Fc-scTL1A K111A L123K M158Y Q167A S187L N207F) (Fc fusion)
chain: [left out - human IgG1 Fc and a few adjoining residues]GGGGSVYAPLRADGDKPRAHLTVVRQTPTQHFANQFPALHWEHEKGLAFTKNRMNYTNKFLLIPESGDYFIYSQVTFRGYTSECSEIRAAGRPNKPDSITVVITKVTDLYPEPTQLLMGTKSVCEVGSFWFQPIYLGAMFSLQEGDKLMVNVSDISLVDYTKEDKTFFGAFLLGGGSGGGSGGGSVYAPLRADGDKPRAHLTVVRQTPTQHFANQFPALHWEHEKGLAFTKNRMNYTNKFLLIPESGDYFIYSQVTFRGYTSECSEIRAAGRPNKPDSITVVITKVTDLYPEPTQLLMGTKSVCEVGSFWFQPIYLGAMFSLQEGDKLMVNVSDISLVDYTKEDKTFFGAFLLGGGSGGGSGGGSVYAPLRADGDKPRAHLTVVRQTPTQHFANQFPALHWEHEKGLAFTKNRMNYTNKFLLIPESGDYFIYSQVTFRGYTSECSEIRAAGRPNKPDSITVVITKVTDLYPEPTQLLMGTKSVCEVGSFWFQPIYLGAMFSLQEGDKLMVNVSDISLVDYTKEDKTFFGAFLL
notes: Fc-scTL1A format; mutations in all three TL1A copies of the entry; also called TL1W328.001
B3: TL1W329 (Fc-scTL1A K111A L123K M158Y Q167A E190F N207F) (Fc fusion)
chain: [left out - human IgG1 Fc and a few adjoining residues]GGGGSVYAPLRADGDKPRAHLTVVRQTPTQHFANQFPALHWEHEKGLAFTKNRMNYTNKFLLIPESGDYFIYSQVTFRGYTSECSEIRAAGRPNKPDSITVVITKVTDSYPFPTQLLMGTKSVCEVGSFWFQPIYLGAMFSLQEGDKLMVNVSDISLVDYTKEDKTFFGAFLLGGGSGGGSGGGSVYAPLRADGDKPRAHLTVVRQTPTQHFANQFPALHWEHEKGLAFTKNRMNYTNKFLLIPESGDYFIYSQVTFRGYTSECSEIRAAGRPNKPDSITVVITKVTDSYPFPTQLLMGTKSVCEVGSFWFQPIYLGAMFSLQEGDKLMVNVSDISLVDYTKEDKTFFGAFLLGGGSGGGSGGGSVYAPLRADGDKPRAHLTVVRQTPTQHFANQFPALHWEHEKGLAFTKNRMNYTNKFLLIPESGDYFIYSQVTFRGYTSECSEIRAAGRPNKPDSITVVITKVTDSYPFPTQLLMGTKSVCEVGSFWFQPIYLGAMFSLQEGDKLMVNVSDISLVDYTKEDKTFFGAFLL
notes: Fc-scTL1A format; also called TL1W329.001
B4: TL1W331 (Fc-scTL1A K111A L123K Q167A S187L E190F N207F) (Fc fusion)
chain: [left out - human IgG1 Fc and a few adjoining residues]GGGGSVYAPLRADGDKPRAHLTVVRQTPTQHFANQFPALHWEHEKGLAFTKNRMNYTNKFLLIPESGDYFIYSQVTFRGMTSECSEIRAAGRPNKPDSITVVITKVTDLYPFPTQLLMGTKSVCEVGSFWFQPIYLGAMFSLQEGDKLMVNVSDISLVDYTKEDKTFFGAFLLGGGSGGGSGGGSVYAPLRADGDKPRAHLTVVRQTPTQHFANQFPALHWEHEKGLAFTKNRMNYTNKFLLIPESGDYFIYSQVTFRGMTSECSEIRAAGRPNKPDSITVVITKVTDLYPFPTQLLMGTKSVCEVGSFWFQPIYLGAMFSLQEGDKLMVNVSDISLVDYTKEDKTFFGAFLLGGGSGGGSGGGSVYAPLRADGDKPRAHLTVVRQTPTQHFANQFPALHWEHEKGLAFTKNRMNYTNKFLLIPESGDYFIYSQVTFRGMTSECSEIRAAGRPNKPDSITVVITKVTDLYPFPTQLLMGTKSVCEVGSFWFQPIYLGAMFSLQEGDKLMVNVSDISLVDYTKEDKTFFGAFLL
notes: Fc-scTL1A format; also called TL1W331.001; Fc-scTL1A-AKALFF
B5: TL1W327 (Fc-scTL1A K111A L123K M158Y Q167A S187L E190F) (Fc fusion)
chain: [left out - human IgG1 Fc and a few adjoining residues]GGGGSVYAPLRADGDKPRAHLTVVRQTPTQHFANQFPALHWEHEKGLAFTKNRMNYTNKFLLIPESGDYFIYSQVTFRGYTSECSEIRAAGRPNKPDSITVVITKVTDLYPFPTQLLMGTKSVCEVGSNWFQPIYLGAMFSLQEGDKLMVNVSDISLVDYTKEDKTFFGAFLLGGGSGGGSGGGSVYAPLRADGDKPRAHLTVVRQTPTQHFANQFPALHWEHEKGLAFTKNRMNYTNKFLLIPESGDYFIYSQVTFRGYTSECSEIRAAGRPNKPDSITVVITKVTDLYPFPTQLLMGTKSVCEVGSNWFQPIYLGAMFSLQEGDKLMVNVSDISLVDYTKEDKTFFGAFLLGGGSGGGSGGGSVYAPLRADGDKPRAHLTVVRQTPTQHFANQFPALHWEHEKGLAFTKNRMNYTNKFLLIPESGDYFIYSQVTFRGYTSECSEIRAAGRPNKPDSITVVITKVTDLYPFPTQLLMGTKSVCEVGSNWFQPIYLGAMFSLQEGDKLMVNVSDISLVDYTKEDKTFFGAFLL
notes: also called TL1W327.001
B6: TL1W15 (His-TEV-HSA(C34S)-G4S-TL1A-3(G3S)-TL1A-3(G3S)-TL1A) (ligand)
chain: HHHHHHENLYFQG[left out - about 600 residues]GGGGSVYAPLRADGDKPRAHLTVVRQTPTQHFKNQFPALHWEHELGLAFTKNRMNYTNKFLLIPESGDYFIYSQVTFRGMTSECSEIRQAGRPNKPDSITVVITKVTDSYPEPTQLLMGTKSVCEVGSNWFQPIYLGAMFSLQEGDKLMVNVSDISLVDYTKEDKTFFGAFLLGGGSGGGSGGGSVYAPLRADGDKPRAHLTVVRQTPTQHFKNQFPALHWEHELGLAFTKNRMNYTNKFLLIPESGDYFIYSQVTFRGMTSECSEIRQAGRPNKPDSITVVITKVTDSYPEPTQLLMGTKSVCEVGSNWFQPIYLGAMFSLQEGDKLMVNVSDISLVDYTKEDKTFFGAFLLGGGSGGGSGGGSVYAPLRADGDKPRAHLTVVRQTPTQHFKNQFPALHWEHELGLAFTKNRMNYTNKFLLIPESGDYFIYSQVTFRGMTSECSEIRQAGRPNKPDSITVVITKVTDSYPEPTQLLMGTKSVCEVGSNWFQPIYLGAMFSLQEGDKLMVNVSDISLVDYTKEDKTFFGAFLL
notes: HSA fusion of the single-chain TL1A trimer; also called HSA-scTL1A; HSA-scTL1A (TL1W15)
B7: TL1W3 (GS-huIgG1 Fc - 2(G4S)-hTL1A 72-251) (Fc fusion)
chain: [left out - human IgG1 Fc and a few adjoining residues]GGGGSLKGQEFAPSHQQVYAPLRADGDKPRAHLTVVRQTPTQHFKNQFPALHWEHELGLAFTKNRMNYTNKFLLIPESGDYFIYSQVTFRGMTSECSEIRQAGRPNKPDSITVVITKVTDSYPEPTQLLMGTKSVCEVGSNWFQPIYLGAMFSLQEGDKLMVNVSDISLVDYTKEDKTFFGAFLL
notes: Target oligomer hexamer: three Fc and two TL1A trimers; also called Fc-TL1A; Fc-TL1A (TL1W3)
B8: TL1W61 (Fc-TL1A + His-TL1A) (Fc fusion)
chain 1: [left out - human IgG1 Fc and a few adjoining residues]GGGGSLKGQEFAPSHQQVYAPLRADGDKPRAHLTVVRQTPTQHFKNQFPALHWEHELGLAFTKNRMNYTNKFLLIPESGDYFIYSQVTFRGMTSECSEIRQAGRPNKPDSITVVITKVTDSYPEPTQLLMGTKSVCEVGSNWFQPIYLGAMFSLQEGDKLMVNVSDISLVDYTKEDKTFFGAFLL
chain 2: HHHHHHENLYFQGLKGQEFAPSHQQVYAPLRADGDKPRAHLTVVRQTPTQHFKNQFPALHWEHELGLAFTKNRMNYTNKFLLIPESGDYFIYSQVTFRGMTSECSEIRQAGRPNKPDSITVVITKVTDSYPEPTQLLMGTKSVCEVGSNWFQPIYLGAMFSLQEGDKLMVNVSDISLVDYTKEDKTFFGAFLL
notes: that entry prints the Fc-TL1A chain followed by the His-TL1A chain; target oligomer printed as Dimer; also called Fc-His-TL1A; Fc-His-TL1A (TL1W61)
B9: TL1W9 (His-TEV-G-HSA (C34S)-2(G4S)-TL1A) (ligand)
chain: HHHHHHENLYFQG[left out - about 600 residues]GGGGSGGGGSLKGQEFAPSHQQVYAPLRADGDKPRAHLTVVRQTPTQHFKNQFPALHWEHELGLAFTKNRMNYTNKFLLIPESGDYFIYSQVTFRGMTSECSEIRQAGRPNKPDSITVVITKVTDSYPEPTQLLMGTKSVCEVGSNWFQPIYLGAMFSLQEGDKLMVNVSDISLVDYTKEDKTFFGAFLL
notes: HSA fusion, non-covalent trimer; also called HSA-TL1A; HSA-TL1A (TL1W9)

What follows are binders tested against T1, DcR3 (assay: ELISA, DcR3).

EC50 | Rel EC50 | Binder
6.5 nM | 1 ratio (head: nM) | B1

Molecular target: T1, DcR3
Assay: ELISA, DcR3
Remark: another data set of the same source

binding result | EC50 | Binder
no binding |  | B2
no binding |  | B3
no binding |  | B4
no binding |  | B5
 | 6.5 nM | B1

These binders were tested against T2, Recombinant DR3-Fc (R&D Systems, cat. …) (assay: ELISA, DR3-Fc immobilized).
Procedure: (§1) All ELISA-based measurements were collected in triplicate, and error values report the standard error between measurements. Recombinant DR3-Fc (R&D Systems, cat. #943-D3), dimeric MW˜92 kDa, was non-specifically immobilized onto plates (Nunc maxisorp, cat. #436110) in 100 μL DR3-Fc, diluted to 10 μg/mL onto a 96-well White Maxisorp plate (Nunc, cat #436110) (O/N, 4° C.). Plates were block for 1 hour at room temperature with 250 μl/well of casein buffer and blocking buffer was removed. 50 μL of TL1A variants were diluted in StartingBlock PBS (Thermo Fisher Scientific), at 25 μg/mL, diluting 3× over each well, according to the plate map description for 20160623) per well on a 96-well White Maxisorp plate (Nunc, cat #: 436110) (overnight at 4° C.).
(§2) Plates were washed three times with TBST. 100 μl/well polyclonal rabbit anti-human TL1A-biotin antibody (diluted 1:1000 in Starting Block PBS) was added and plates were incubated for 1 hour at room temperature with shaking at 150 rpm. TL1A-biotin antibody was removed and 100 μl/well streptavidin-HRP conjugate (diluted 1:10,000 in Starting Block PBS) was added to plates. Plates were incubated for 1 hour at room temperature with shaking at 150 rpm. Plates were washed three times with TBST. 100 μl/well POD Chemiluminescence substrate (Roche, cat #: 11582950001) was added immediately prior to reading plate luminescence using a Molecular Devices M5 plate reader with a delay setting of 100 ms.
These combination mutants were tested for binding to DR3 and DcR3 (FIGS. 5E and 5F, respectively).

EC50 | Rel EC50 | Binder
8.8 nM | 0.8 ratio | B2
8.7 nM | 0.9 ratio | B3
9 nM | 0.9 ratio | B4
37.5 nM | 3.9 ratio | B5
9.7 nM | 1 ratio | B1

These binders were tested against T2, Recombinant DR3-Fc (R&D Systems, cat. …) (assay: ELISA, TL1A construct immobilized, DR3 titrated).

EC50 | Binder
3.8 nM | B6
1.5 nM | B1
2.6 nM | B7
2.2 nM | B8

Molecular target: T2, Recombinant DR3-Fc (R&D Systems, cat. …)
Assay: ELISA, DR3-Fc immobilized
Remark: another data set of the same source
Procedure: as §1
as §2, with “Plates were incubated for 1 hour at room temperature with shaking at 150 rpm. Plates were washed three times with TBST.” left out, “ms. […]” for “ms.”

Rel EC50 | Binder
1 ratio (head: nM) | B1

Molecular target: T2, Recombinant DR3-Fc (R&D Systems, cat. …)
Assay: ELISA, DR3-Fc immobilized
Remark: another data set of the same source
Procedure: as §1, §2

EC50 | Binder
168 nM | B9
29.2 nM | B6
9.7 nM | B1
12.4 nM | B7
10.2 nM | B8
